Data from ChEMBL document CHEMBL4888484, “Replenishing the malaria drug discovery pipeline: Screening and hit evaluation of the MMV Hit Generation Library 1 (HGL1) against asexual blood stage Plasmodium falciparum ,using a nano luciferase reporter read-out” (2022).
Hit rate of the full screen: of about 150,000 compounds, about 540 (0.36%) showed an effect of 50% or more. The list shows a part of the results.

tested on: Plasmodium falciparum; assay: Primary screen in NF54 nanoGlo assay, in single point, at 2uM, 72h; a lower Z score goes with more inhibition; format: functional, Erythrocyte; conditions: timepoint 72 hour

Structure (SMILES)	% Inhibition [%]	Z score
Cc1cccc(OCC(=O)N2CCC(CN3C[C@@H](COc4cnccn4)CC3=O)CC2)c1	-13	2.56
O=C(c1c[nH]cn1)N1CC[C@@]2(CCCN(CCCc3ccccc3)C2)C1	1	-0.26
COc1ccc(Cn2cc([C@H](CC(=O)N3CCOCC3)c3ccc(F)cc3)c3ccccc32)cc1	10	-1.3
COc1ccc(CNC(=O)[C@@H]2CCC[C@@H](NC(=O)Nc3cccnc3)CN(C)C(=O)C2)cc1	-8	1.19
CN(C)c1ncn(-c2cccc(NCc3cc(F)c(F)c(F)c3)c2)n1	2	-0.38
Cc1ccc(CN(C)C(=O)N[C@H]2CCCc3ccc(C)cc32)nc1	-3	0.37
C[C@H](NC(=O)C1CCc2nnn(C)c2C1)C1CCCC1 (stereo partly specified)	-7	0.78
COc1cc(-c2noc(CNC3CCCCC3OC)n2)ccc1C (stereo unspecified)	-9	1.52
O=c1c2c(ncn1Cc1ccc(F)cc1)c1ccccc1n2Cc1cccc(Cl)c1	-1	0.14
CCC(CC)n1ccc(C(=O)NC2(C(=O)OC)CCCC2)n1	-6	0.96
O=S(=O)(C1CCC1)N1CCO[C@H](C(F)(F)F)CC1	1	-0.08
COc1ccc(-c2nn3c(Cc4ccccn4)nnc3s2)cc1OC	36	-4.04
Nc1nnc(CCOc2ccccc2)o1	10	-1.36
C[C@@H](C(=O)Nc1ccc(-c2nnc3n2CCC3)cc1)n1cccn1	-13	2.28
CN1CCN(C(=O)c2nc3ccccc3s2)CC1=O	9	-1.17
O=C(Nc1ccccc1)c1ccc(NC(=O)N2CCc3ccccc3[C@@H]2CO)cc1	-5	0.87
O=C(c1ccc(C(F)F)c(F)c1)N1CCO[C@H](c2nnn[nH]2)C1	-15	1.73
CCOc1ccccc1C(=O)N1CCC2(CC1)C[C@@H](C(=O)NCCCOC)N(C)C2=O	-9	1.07
C1CCCN(Cc2nc(C3CC3)no2)CCC1	-6	0.91
CC1CC1C(=O)Nc1nc(C2CC2)cs1 (stereo unspecified)	-2	0.27
CN(C)C(=O)N[C@@H](Cc1ccccc1)C(=O)N1CCCCC1	8	-1.01
COc1ccc(N[C@H]2CCCN(C(=O)c3oc(C)cc3C)C2)cc1OC	-11	1.65

Structure (SMILES)	% Inhibition [%]	Z score
CN(Cc1cn(C)nc1C(F)(F)F)C(=O)N[C@H]1CCCC12CCCCC2	7	-1
CCc1noc(C)c1C(=O)NC(c1ccccc1)c1ccccc1	-13	1.22
Cc1cccc(O[C@@H]2CNCCOC2)n1	-10	1.45
C[C@@H](C1CC1)N(C(=O)Cn1cc(C(N)=O)nc1C1CC1)C1CC1	-8	1.53
CCOC1(OCC)[C@@H](c2ccc(OC)cc2)C(C#N)(C#N)C1(OCC)OCC	-29	3.41
COc1ccc(-c2cn(C3CCN(C(C)=O)CC3)nn2)cc1	-20	2.73
Cc1cnn(C(C)C(C)Nc2ncnc3c2CCC3)c1 (stereo unspecified)	4	-0.48
CN1CCN(c2nc(CS(=O)(=O)c3ccccc3)cs2)CC1	-2	0.22
O=C(NC(c1ccccc1)c1ccccc1)N1CC(n2nccn2)C1	-21	2.38
CN1CCN(C2Cc3ccccc3[S+]([O-])c3ccc(Cl)cc32)CC1 (stereo unspecified)	3	-0.39
CC1CC(C)CN(CC(O)COCC2=CCC3CC2C3(C)C)C1 (stereo unspecified)	1	-0.15
Cn1cc(S(=O)(=O)NC[C@H]2CCNCC2(F)F)cn1	20	-2.53
Cc1nccc(OC2CCN(C(=O)c3cc4n(n3)CCCO4)CC2)n1	-4	0.7
CN=C(N[C@@H](C)c1ccccn1)c1ccco1	-10	1.25
COc1ccc(N2CCN(C(=O)[C@@H]3CCC(=O)N3S(=O)(=O)c3ccccc3)CC2)cc1	-1	0.17
COc1ccc(O)cc1-c1nc2c([nH]1)c(C)nn2Cc1ccccc1Cl	-2	0.21
O=C(NC1CC1)[C@@H]1CCCN1c1ccc(OC(F)F)cn1	0	-0.01
CN(Cc1n[nH]c2c1CCC2)C(=O)CN1CCOCC1	1	-0.28
Cc1cc(-c2noc(CNC(=O)[C@H]3CCS(=O)(=O)C3)n2)no1	-12	2.41
O=C(CC(C1CCC1)C1CCC1)NCc1c(O)cccc1O	-8	0.95
CC(C)n1cc(NC(=O)CCc2ccnn2C)cn1	-6	1.04
